# This is one part of a sample in which the strongest signals are shown more often than they occur.
# System: Fuc(a1-2)Gal(b1-4)[Fuc(a1-3)]GlcNAc(b1-2)Man(a1-3)[Fuc(a1-2)Gal(b1-4)[Fuc(a1-3)]GlcNAc(b1-2)Man(a1-6)]Man(b1-4)GlcNAc(b1-4)GlcNAc
# Assay: glycan array binding signal (z-score within array); higher = stronger binding
# Settings: glycan notation: IUPAC condensed, linker removed
# Method in brief: (§1)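 The Consortium for Functional Glycomics database supplied 3228 glycan arrays, of which those lacking an available protein sequence were dropped. The binding signal, a within-array Z-score, was averaged across arrays of the same protein sequence and across linkers. Negative scores can be read as non-binding.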
row,Substance,glycan array binding signal (z-score)
1,CLEC-2 (Homo sapiens) (chain not printed),1.87
2,NCAM1 (Homo sapiens) (chain not printed),5.38
3,Siglec-2 (Homo sapiens) (chain not printed),1.36

# System: Fuc(a1-2)[Gal(a1-3)]Gal(b1-3)GlcNAc
# Assay: as above
# Settings: glycan notation: IUPAC condensed, linker removed
# Method in brief: as §1
row,Substance,glycan array binding signal (z-score)
1,Angiogenin (Homo sapiens) (chain not printed),-0.56
2,H-Ficolin (Homo sapiens) (chain not printed),-0.083
3,Siglec-2 (Homo sapiens) (chain not printed),0.014

# — the supplement of paper PMC8728848
